According to PMC4336329 (PLoS ONE, 2015):
Out of some 310,000 compounds screened, about 2,200 (0.71%) showed an effect of 50% or more. Effects have a minus sign here. The list shows a part of the results.

Biological target: human ether-à-go-go-related gene (hERG) potassium channel (human, UniProt Q12809)
Assay: primary screen, population patch clamp on CHO cells stably expressing hERG

Sequence of human ether-à-go-go-related gene (hERG) potassium channel (Q12809 whole entry, looked up): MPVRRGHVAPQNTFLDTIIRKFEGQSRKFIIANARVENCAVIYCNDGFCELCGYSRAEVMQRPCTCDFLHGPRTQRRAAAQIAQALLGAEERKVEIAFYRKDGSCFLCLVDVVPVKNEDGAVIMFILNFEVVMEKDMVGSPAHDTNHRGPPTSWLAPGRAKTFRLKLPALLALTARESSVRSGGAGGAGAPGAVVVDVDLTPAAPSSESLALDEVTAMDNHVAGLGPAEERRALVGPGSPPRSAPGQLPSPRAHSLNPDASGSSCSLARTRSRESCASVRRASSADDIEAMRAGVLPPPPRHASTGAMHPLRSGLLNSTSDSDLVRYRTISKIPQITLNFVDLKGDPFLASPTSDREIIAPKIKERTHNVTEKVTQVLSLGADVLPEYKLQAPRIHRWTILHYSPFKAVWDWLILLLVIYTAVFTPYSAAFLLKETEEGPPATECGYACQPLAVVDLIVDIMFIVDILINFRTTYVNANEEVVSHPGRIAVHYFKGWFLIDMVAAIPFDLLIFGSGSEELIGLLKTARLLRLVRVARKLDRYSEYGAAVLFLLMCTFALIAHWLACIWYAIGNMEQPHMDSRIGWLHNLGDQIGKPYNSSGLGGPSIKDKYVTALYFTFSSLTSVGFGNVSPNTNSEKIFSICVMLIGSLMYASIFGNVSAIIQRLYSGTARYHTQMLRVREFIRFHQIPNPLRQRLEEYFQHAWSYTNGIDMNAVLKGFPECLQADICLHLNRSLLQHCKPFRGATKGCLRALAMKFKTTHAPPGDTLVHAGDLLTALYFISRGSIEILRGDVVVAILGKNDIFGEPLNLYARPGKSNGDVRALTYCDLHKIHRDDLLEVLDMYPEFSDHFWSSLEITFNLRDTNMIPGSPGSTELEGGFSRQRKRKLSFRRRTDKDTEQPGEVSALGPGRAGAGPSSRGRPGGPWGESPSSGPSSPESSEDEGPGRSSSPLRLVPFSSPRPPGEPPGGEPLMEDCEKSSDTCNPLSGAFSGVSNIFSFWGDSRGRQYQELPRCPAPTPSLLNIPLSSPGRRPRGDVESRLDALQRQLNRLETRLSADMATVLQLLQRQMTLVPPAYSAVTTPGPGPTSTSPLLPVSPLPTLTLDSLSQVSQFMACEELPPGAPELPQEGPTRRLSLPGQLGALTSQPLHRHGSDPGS

Question: With `CSc1ccccc1NC(=O)c1csc(C)c1` as the compound, how does the “hERG current change (%, negative = inhibition) at 1uM” value read?
Answer: 4.05%

Question: Which “hERG current change (%, negative = inhibition) at 1uM” value does the source give for `Cc1ccc(OCCC(=O)Nc2c(C)n(C)n(-c3ccccc3)c2=O)cc1` here?
Answer: 3.64%

Question: For `O=C(C(Cl)Cl)N1CCN(Cc2ccccc2)CC1`, which “hERG current change (%, negative = inhibition) at 1uM” value is on record?
Answer: 5.56%

Question: For `O=C(CN1CCOCC1)Nc1ccccc1C(=O)O`, which “hERG current change (%, negative = inhibition) at 1uM” value is on record?
Answer: -7.05%

Question: With `Cc1noc(C)c1C(=O)OC(C)C(=O)Nc1ccc(S(=O)(=O)NC(C)C)cc1` (stereo not drawn) as the compound, how does the “hERG current change (%, negative = inhibition) at 1uM” value read?
Answer: 5.92%

Question: For `O=C(C1=C[C@@H](c2ccc(Br)cc2)C[C@@H](OCCCCO)O1)N1CCN(Cc2ccccc2)CC1`, which “hERG current change (%, negative = inhibition) at 1uM” value is on record?
Answer: -22.5%

Question: Which “hERG current change (%, negative = inhibition) at 1uM” value does the source give for `CCOC(=O)N1CCC(NC(=O)c2ccc(CNS(=O)(=O)c3ccc(F)cc3)cc2)CC1` here?
Answer: -9.59%

Question: How did the “hERG current change (%, negative = inhibition) at 1uM” value turn out when `COc1ccc(Cl)cc1NC(=O)CN(C)C(=O)CN1C(=O)NC2(CCCC2)C1=O` was run?
Answer: 7.52%

Question: With `Cc1cc(SC(C)C(=O)O)nc2ccccc12` (stereo not drawn) as the compound, how does the “hERG current change (%, negative = inhibition) at 1uM” value read?
Answer: 5.41%

Question: Which “hERG current change (%, negative = inhibition) at 1uM” value does the source give for `COc1ccc(C)cc1NC(=O)c1cc2c(CO)cnc(C)c2oc1=N` here?
Answer: 10.2%

Question: How did the “hERG current change (%, negative = inhibition) at 1uM” value turn out when `COc1c(Cl)cc(Cl)cc1CNCc1ccccc1.Cl` was run?
Answer: 2.49%

Question: `CN(Cc1ccccc1)S(=O)(=O)c1ccc(Cl)c(C(=O)NCc2ccc3c(c2)OCO3)c1` was tested. Which “hERG current change (%, negative = inhibition) at 1uM” value did it give?
Answer: 10.8%

Question: With `CCCN1C=CC(=C2C(=O)c3ccccc3C2=O)C=C1` as the compound, how does the “hERG current change (%, negative = inhibition) at 1uM” value read?
Answer: 13.6%

Question: Which “hERG current change (%, negative = inhibition) at 1uM” value does the source give for `Cc1cc(C)c2c(n1)sc1c(=O)n(Cc3ccc(F)cc3)cnc12` here?
Answer: 10.5%

Question: With `CCOc1ccc(N)cc1OC.Cl` as the compound, how does the “hERG current change (%, negative = inhibition) at 1uM” value read?
Answer: 15.6%

Question: How did the “hERG current change (%, negative = inhibition) at 1uM” value turn out when `CCCN[C@H]1CCc2nc(N)sc2C1` was run?
Answer: -1.58%

Question: Which “hERG current change (%, negative = inhibition) at 1uM” value does the source give for `CC(c1ccccc1)c1nnc(NC(=O)c2ccc3c(c2)OCO3)s1` (stereo not drawn) here?
Answer: 6.28%

Question: For `Cc1ccc(C(=O)CSC2=NC(N)=C(C#N)C3(CCCCC3)C2C(N)=O)cc1` (stereo not drawn), which “hERG current change (%, negative = inhibition) at 1uM” value is on record?
Answer: -14.2%

Question: With `C=CCOc1ccc(/C=N/NC(C)=O)cc1OCC` as the compound, how does the “hERG current change (%, negative = inhibition) at 1uM” value read?
Answer: 6.06%

Question: Which “hERG current change (%, negative = inhibition) at 1uM” value does the source give for `Cc1ccc2cc(-c3noc(C4CCCO4)n3)c(=O)[nH]c2c1` (stereo not drawn) here?
Answer: 6.45%

Question: Which “hERG current change (%, negative = inhibition) at 1uM” value does the source give for `CCc1nc(C)cn1S(=O)(=O)c1cc(C)c(OC)c(C)c1C` here?
Answer: 1.85%

Question: For `COc1ccc(C(c2sc3ncnn3c2O)N2CCN(c3ccccc3F)CC2)cc1OC` (stereo not drawn), which “hERG current change (%, negative = inhibition) at 1uM” value is on record?
Answer: 4.87%

Question: `CCCCn1c(SCC(=O)NC2CC(C)(C)NC(C)(C)C2)nc2cc(S(N)(=O)=O)ccc21.Cl` was tested. Which “hERG current change (%, negative = inhibition) at 1uM” value did it give?
Answer: -3.2%

Question: With `Clc1nc(N2CCOCC2)ncc1Br` as the compound, how does the “hERG current change (%, negative = inhibition) at 1uM” value read?
Answer: 14.4%

Question: How did the “hERG current change (%, negative = inhibition) at 1uM” value turn out when `Cc1ccc(NC(=O)Nc2ccc(Cl)cc2)c(Br)c1` was run?
Answer: 5.94%

Question: Which “hERG current change (%, negative = inhibition) at 1uM” value does the source give for `Cc1cccc(S(=O)(=O)Nc2ccncc2)c1` here?
Answer: 19%

Question: How did the “hERG current change (%, negative = inhibition) at 1uM” value turn out when `Cc1ccc(S(=O)(=O)Nc2ccc(C(N)=O)cc2)cc1[N+](=O)[O-]` was run?
Answer: 4.5%

Question: Which “hERG current change (%, negative = inhibition) at 1uM” value does the source give for `CCCCN(CCCC)CCNC(=O)CNC(=O)c1cccs1` here?
Answer: 5.88%

Question: How did the “hERG current change (%, negative = inhibition) at 1uM” value turn out when `O=C(O)CSC(=S)N1CCCCC1` was run?
Answer: 8.96%

Question: For `O=C(CN1C(=O)C2CC=CCC2C1=O)OCC(=O)c1ccc(Cl)c([N+](=O)[O-])c1` (stereo not drawn), which “hERG current change (%, negative = inhibition) at 1uM” value is on record?
Answer: 12%

Question: How did the “hERG current change (%, negative = inhibition) at 1uM” value turn out when `CCC(C)c1ccccc1N1CC(C(=O)Nc2ccccc2N2CCCC2)CC1=O` (stereo not drawn) was run?
Answer: 9.33%

Question: For `COc1cccc(C(=O)N2CCC(C(=O)NCc3ccc(C)cc3)CC2)c1`, which “hERG current change (%, negative = inhibition) at 1uM” value is on record?
Answer: -23.6%

Question: Which “hERG current change (%, negative = inhibition) at 1uM” value does the source give for `c1ccc(-c2nnc(-c3ccco3)n2-c2ccccc2)cc1` here?
Answer: 10.2%

Question: How did the “hERG current change (%, negative = inhibition) at 1uM” value turn out when `Cc1ccccc1C(=O)NNC(=O)C1CCCN(c2ncccn2)C1` (stereo not drawn) was run?
Answer: 6.51%

Question: With `Cc1ccc(SC(C)C(=O)N2CCC(C(N)=O)CC2)cc1` (stereo not drawn) as the compound, how does the “hERG current change (%, negative = inhibition) at 1uM” value read?
Answer: 13.4%

Question: How did the “hERG current change (%, negative = inhibition) at 1uM” value turn out when `COc1ccc(NC(=O)Cn2nnc(C(=O)NCCc3ccc(OC)c(OC)c3)c2N)c(OC)c1` was run?
Answer: -1.5%

Question: How did the “hERG current change (%, negative = inhibition) at 1uM” value turn out when `CCOC(=O)C(=O)NCC(c1cccs1)S(=O)(=O)c1ccc(F)cc1` (stereo not drawn) was run?
Answer: -5.9%

Question: `CCn1ccnc1CN1CCN(CC=C(C)C)C(CCO)C1` (stereo not drawn) was tested. Which “hERG current change (%, negative = inhibition) at 1uM” value did it give?
Answer: 9.77%

Question: `CCC/C(=C1/c2ccccc2C(=O)N1c1ccccc1)c1ccc2c(c1)OCO2` was tested. Which “hERG current change (%, negative = inhibition) at 1uM” value did it give?
Answer: 20%

Question: For `CC(C)n1c(O)c(N=NC(=O)Cn2ccc(C(F)(F)F)n2)c2ccccc21`, which “hERG current change (%, negative = inhibition) at 1uM” value is on record?
Answer: 15%

Question: How did the “hERG current change (%, negative = inhibition) at 1uM” value turn out when `CCO/C(C)=C1\C(=O)Nc2ccccc21` was run?
Answer: 13.1%

Question: For `CCCn1c(=O)c2c(nc3n2CCN3Cc2ccco2)n(C)c1=O`, which “hERG current change (%, negative = inhibition) at 1uM” value is on record?
Answer: 3.87%

Question: Which “hERG current change (%, negative = inhibition) at 1uM” value does the source give for `CCc1ccc(S(=O)(=O)Nc2ccc(-c3ccc4nncn4n3)cc2)s1` here?
Answer: 8.42%

Question: For `COc1ccccc1N1CCN(C2CCCN(C(=O)CN3CCCCC3=O)C2)CC1` (stereo not drawn), which “hERG current change (%, negative = inhibition) at 1uM” value is on record?
Answer: 11.9%

Question: How did the “hERG current change (%, negative = inhibition) at 1uM” value turn out when `Cc1cc(C)n2nc(-c3cccc(Br)c3)cc2n1` was run?
Answer: 12.3%

Question: `N#CCCN(C(=O)Nc1ccccc1)c1ccccc1` was tested. Which “hERG current change (%, negative = inhibition) at 1uM” value did it give?
Answer: 14.1%

Question: How did the “hERG current change (%, negative = inhibition) at 1uM” value turn out when `Cn1cnc2c(=O)[nH]cc([N+](=O)[O-])c21.O` was run?
Answer: 12.2%

Question: `Cc1cc(=O)oc2cc(OC(C)C(=O)NCC3CCC(C(=O)O)CC3)c(Cl)cc12` (stereo not drawn) was tested. Which “hERG current change (%, negative = inhibition) at 1uM” value did it give?
Answer: 9.39%

Question: How did the “hERG current change (%, negative = inhibition) at 1uM” value turn out when `CCCc1nnc(SCC(=O)N2CCCC(C)C2)n1CCOC` (stereo not drawn) was run?
Answer: 14.1%

Question: For `CC(=O)Nc1cccc2c1C(=O)N(c1ccccc1OC(C)=O)C2=O`, which “hERG current change (%, negative = inhibition) at 1uM” value is on record?
Answer: 23.8%

Question: For `C=CCc1ccccc1OCC(O)CN1CCOCC1` (stereo not drawn), which “hERG current change (%, negative = inhibition) at 1uM” value is on record?
Answer: 13.4%

Question: `Cc1nn(C(C)C(=O)NCCN2CCCCCC2)c(=O)c2nn(-c3ccccc3)c(C)c12` (stereo not drawn) was tested. Which “hERG current change (%, negative = inhibition) at 1uM” value did it give?
Answer: 14.9%

Question: For `O=C(NNC(=O)C12CC3CC(CC(C3)C1)C2)[C@@H]1C[C@H]1c1ccccc1`, which “hERG current change (%, negative = inhibition) at 1uM” value is on record?
Answer: 11.5%

Question: `O=C(CCNS(=O)(=O)c1ccc(Br)s1)Nc1ccc(Cl)cc1` was tested. Which “hERG current change (%, negative = inhibition) at 1uM” value did it give?
Answer: 2.75%

Question: With `Cc1ccc(-c2cc(-c3cccs3)[nH]n2)c(O)c1` as the compound, how does the “hERG current change (%, negative = inhibition) at 1uM” value read?
Answer: 6.98%

Question: `O=C(CCc1ccncc1)N1CCCC(Nc2ccc(F)cc2)C1` (stereo not drawn) was tested. Which “hERG current change (%, negative = inhibition) at 1uM” value did it give?
Answer: 4.5%

Question: How did the “hERG current change (%, negative = inhibition) at 1uM” value turn out when `COc1ccc(OCCSc2nnc(C(C)NC(=O)c3ccccc3F)n2C)cc1` (stereo not drawn) was run?
Answer: 3.22%

Question: How did the “hERG current change (%, negative = inhibition) at 1uM” value turn out when `O=C(Nc1ccccc1NC(=O)c1ccco1)c1ccccc1` was run?
Answer: 10.9%

Question: Which “hERG current change (%, negative = inhibition) at 1uM” value does the source give for `Cc1cc(C)nc(SCc2ccc([N+](=O)[O-])cc2)n1` here?
Answer: 6.29%

Question: With `COc1cccc(NC(=O)CN(C)C(=O)c2c(C)nn(CC(C)C)c2Cl)c1` as the compound, how does the “hERG current change (%, negative = inhibition) at 1uM” value read?
Answer: 12.6%
